These are yes or no findings as the source states them, for the method shown. Binding seen in cells or lysates may run through a third protein. Sequences can lack the tags named with a protein.
Target: T1, PLDγ3-YFP-HA (Arabidopsis thaliana) (UniProt Q9T052)
T1 sequence: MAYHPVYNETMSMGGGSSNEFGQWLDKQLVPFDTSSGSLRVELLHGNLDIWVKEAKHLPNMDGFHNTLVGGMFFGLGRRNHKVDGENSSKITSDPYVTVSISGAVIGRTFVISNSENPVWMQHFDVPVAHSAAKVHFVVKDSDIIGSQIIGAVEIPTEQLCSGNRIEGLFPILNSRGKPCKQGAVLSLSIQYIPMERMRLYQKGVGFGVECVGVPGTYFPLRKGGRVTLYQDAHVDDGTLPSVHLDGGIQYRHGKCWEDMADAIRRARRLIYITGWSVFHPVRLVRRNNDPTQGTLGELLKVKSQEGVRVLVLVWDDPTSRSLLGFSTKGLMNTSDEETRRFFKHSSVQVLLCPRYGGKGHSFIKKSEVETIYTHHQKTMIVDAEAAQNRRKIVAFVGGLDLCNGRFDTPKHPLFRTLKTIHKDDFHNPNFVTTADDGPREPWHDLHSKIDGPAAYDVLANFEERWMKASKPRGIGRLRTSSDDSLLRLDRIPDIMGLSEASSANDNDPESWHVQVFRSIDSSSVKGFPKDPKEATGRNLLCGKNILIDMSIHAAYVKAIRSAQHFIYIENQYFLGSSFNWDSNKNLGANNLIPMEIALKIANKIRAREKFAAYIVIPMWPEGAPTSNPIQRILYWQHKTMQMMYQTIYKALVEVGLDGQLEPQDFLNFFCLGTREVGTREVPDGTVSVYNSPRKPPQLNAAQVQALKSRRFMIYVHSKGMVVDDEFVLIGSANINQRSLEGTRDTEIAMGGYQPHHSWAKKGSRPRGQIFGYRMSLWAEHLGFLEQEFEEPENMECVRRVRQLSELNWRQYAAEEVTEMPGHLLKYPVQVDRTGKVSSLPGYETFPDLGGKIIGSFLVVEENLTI
Assay: co-IP; PLD-YFP-HA and RPM1-Myc co-expressed in N. benthamiana leaves; microsomal fractions solubilised in 40 mM Tris-HCl pH 7.5, 150 mM NaCl, 1 mM DTT, 5 mM EDTA, 1% Triton X-100; PLD-YFP-HA precipitated with anti-GFP agarose beads at 4°C for 3 h; RPM1-Myc detected by blot

B1: RPM1-Myc (35S::RPM1-Myc) (receptor, UniProt Q39214 1-926)
chain: MASATVDFGIGRILSVLENETLLLSGVHGEIDKMKKELLIMKSFLEDTHKHGGNGSTTTTTQLFQTFVANTRDLAYQIEDILDEFGYHIHGYRSCAKIWRAFHFPRYMWARHSIAQKLGMVNVMIQSISDSMKRYYHSENYQAALLPPIDDGDAKWVNNISESSLFFSENSLVGIDAPKGKLIGRLLSPEPQRIVVAVVGMGGSGKTTLSANIFKSQSVRRHFESYAWVTISKSYVIEDVFRTMIKEFYKEADTQIPAELYSLGYRELVEKLVEYLQSKRYIVVLDDVWTTGLWREISIALPDGIYGSRVMMTTRDMNVASFPYGIGSTKHEIELLKEDEAWVLFSNKAFPASLEQCRTQNLEPIARKLVERCQGLPLAIASLGSMMSTKKFESEWKKVYSTLNWELNNNHELKIVRSIMFLSFNDLPYPLKRCFLYCSLFPVNYRMKRKRLIRMWMAQRFVEPIRGVKAEEVADSYLNELVYRNMLQVILWNPFGRPKAFKMHDVIWEIALSVSKLERFCDVYNDDSDGDDAAETMENYGSRHLCIQKEMTPDSIRATNLHSLLVCSSAKHKMELLPSLNLLRALDLEDSSISKLPDCLVTMFNLKYLNLSKTQVKELPKNFHKLVNLETLNTKHSKIEELPLGMWKLKKLRYLITFRRNEGHDSNWNYVLGTRVVPKIWQLKDLQVMDCFNAEDELIKNLGCMTQLTRISLVMVRREHGRDLCDSLNKIKRIRFLSLTSIDEEEPLEIDDLIATASIEKLFLAGKLERVPSWFNTLQNLTYLGLRGSQLQENAILSIQTLPRLVWLSFYNAYMGPRLRFAQGFQNLKILEIVQMKHLTEVVIEDGAMFELQKLYVRACRGLEYVPRGIENLINLQELHLIHVSNQLVERIRGEGSVDRSRVKHIPAIKHYFRTDNGSFYVSLSS
For B1, the binding was “no binding”.
